# Experimental data reported in PubChem BioAssay AID686979 (National Center for Advancing Translational Sciences (NCATS), 2013).
# Several values for one entry are separate records, joined by “and”; a condition that tells them apart may be missing. Equal entries are not always repeated. Among all 420,000 compounds or so, about 50,000 (12%) were called active. The inconclusive results got no clear call from the source; some entries with a clear call stand among them for comparison. Calls follow the shape of the dose curve; as a rule, active = well fitted inhibition curve with a large enough effect; inconclusive = small, poorly fitted or top-dose-only effect; inactive = flat fitted curve, though single readings scatter. Where the call is inconclusive, the potency comes from a doubtful curve fit.
# Assay: qHTS for Inhibitors of human tyrosyl-DNA phosphodiesterase 1 (TDP1): qHTS in cells in presence of CPT; also: nearly all actives have a fitted effect of over 55% in size
# Details: chicken DT40 Tdp1-/-;hTDP1 cells + 20 nM CPT, ATP luminescence, 48 h; activity change, negative = growth inhibition: at 46.2 µM (top of the series)
# Method in brief: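 Chicken DT40 Tdp1-/- cells stably complemented with human TDP1 were seeded at 400 cells/well in medium containing 20 nM camptothecin, exposed to pin-transferred compounds, and grown at 37 °C for at least 48 hr. Viability was read as ATP luminescence.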
# % is scaled to controls: 0 for no effect and ±100 for the full control effect; potency is read from the fitted curve at half-maximal effect; tags tell the direction and shape of the fitted curve.
SMILES,Potency,"activity change, negative = growth inhibition"
COCCCNC(=O)c1sc2nc(C)c(C(=O)Nc3ccc(Cl)cc3)c(-c3ccc(Br)cc3)c2c1N,"inconclusive: 8.2 µM [inhibitor, partial curve]",
O=C(O)C[C@H]1c2ccccc2S(=O)(=O)N1c1ccccc1,"inactive and inconclusive: 35.5 µM [inhibitor, single point]",
COc1ccccc1C(=O)Nc1ccc2nc3n(c(=O)c2c1)CCCC3,"inconclusive: 16.4 µM [inhibitor, partial curve, poor fit]",
Cc1onc(-c2c(F)cccc2Cl)c1C(=O)OCC(=O)Nc1cccc(S(=O)(=O)N(C)C)c1,"inconclusive: 29.1 µM [inhibitor, single point]",
Cc1ccc(S(=O)(=O)NC2CC(C)(C)N(O)C(C)(C)C2)cc1,"inconclusive: 25.9 µM [inhibitor, single point]",
CC(NC(=O)C1CC1)c1ccc(-c2ccccc2)cc1 (configuration not stated),,inactive: -22.5%
O=C(N/N=C/c1cccc([N+](=O)[O-])c1)c1cc(-c2ccc3c4c(cccc24)CC3)n[nH]1,"inconclusive: 29.1 µM [inhibitor, single point]",
Cc1ccc(CN2CCN(Cc3cn(C(C)C)c4ccccc34)CC2CCO)o1 (configuration not stated),"inconclusive: 29.1 µM [inhibitor, single point]",
CCc1nnc(NC(=O)c2ccc3ncsc3c2)s1,,inactive: 2.39%
CC1(C(=O)Nc2ccccc2F)CCN1C(=O)Cc1ccc(-c2ccccc2)cc1 (configuration not stated),"inconclusive: 25.9 µM [inhibitor, single point]",
Cc1cc2cc(CN(Cc3ccc4c(c3)OCO4)C(=O)c3ccco3)c(=O)[nH]c2cc1C,"inconclusive: 23.1 µM [inhibitor, single point]",
CCOC(=O)C1=C2c3cc(OC)c(OC)cc3CC(C)(C)N2C(=O)C1=O,"inconclusive: 29.1 µM [inhibitor, single point]",
CCC(C)c1ccc(NC(=S)NCCn2cc(Br)cn2)cc1 (configuration not stated),active: 20.6 µM,
Cc1ccc(C)c(N2CCN(C(=O)Cc3cn(C)c4ccccc34)CC2)c1,"inconclusive: 29.1 µM [inhibitor, single point]",
O=C(c1ccccc1C(=O)N1CCN(c2ccccc2F)CC1)N1CCN(c2ccccc2F)CC1,active: 18.4 µM,
COc1ccc(-n2nc(C(=O)NCC(=O)Nc3cc(OC)c(OC)c(OC)c3)c3ccccc3c2=O)cc1,"inconclusive: 29.1 µM [inhibitor, single point]",
COc1cccc(OC)c1C(=O)NC(=S)Nc1ccc2oc(-c3ccncc3)nc2c1,active: 25.9 µM,
